{"source": "PubChem BioAssay AID651820", "about": "(National Center for Advancing Translational Sciences (NCATS), 2012)", "note": "Out of some 340,000 compounds screened, about 12,000 (3.5%) were called active. The shares of active, inactive and inconclusive entries below differ from those in the screen. Calls come from the whole dose curve; as a rule, active = well fitted inhibition curve with a large enough effect; inconclusive = small, poorly fitted or top-dose-only effect, or another doubt; inactive = no such curve, though single readings can be large or run the other way. Potencies of inconclusive entries are left out as doubtful fits. % is set by controls: 0 for no effect and ±100 for the full control effect; potency is the fitted concentration of half-maximal effect; tags give direction and shape of the fitted curve.", "data": [{"assay": "qHTS Assay for Inhibitors of Hepatitis C Virus (HCV)", "settings": "Huh7.5.1 HCVcc-Cre (HCVcc is cell-culture hepatitis C virus) infection, luciferase reporter, 44 h; activity change, negative = inhibition: at 41.8 µM (top of the series)", "summary_of_the_method": "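Infectious HCVcc-Cre (~0.5 moi) was added to cells just after compound, with cells seeded 4 h earlier at 1,000 per well. Luciferase activity after 44 h culture reported infection; substrate was incubated 15 min at room temperature before reading.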", "values": [{"compound": "Cc1cc(C(=O)Nc2ncn(Cc3ccc(F)cc3)n2)ccc1[N+](=O)[O-]", "Potency": "inactive"}, {"compound": "CC(C)S(=O)(=O)c1csc(NC(=O)Nc2cccc([N+](=O)[O-])c2)c1Cl", "Potency": "active: 25.1 µM"}, {"compound": "COc1ccc(N2CCN(C(=O)c3ccc(CS(=O)Cc4ccc(C)cc4)o3)CC2)cc1", "note": "(stereo not drawn)", "Potency": "inconclusive [inhibitor, single point]"}, {"compound": "COc1ccccc1-c1cn(S(=O)(=O)c2ccc(C)cc2)nc1N", "Potency": "inconclusive [inhibitor, single point]"}, {"compound": "NC(=O)C(C1=CCCCC1)c1ccccc1", "note": "(stereo not drawn)", "Potency": "inactive"}, {"compound": "COc1ccc(N(CC(=O)NC2CCCC2)C(=O)Cn2nnc(-c3ccc(OC)c(OC)c3)n2)cc1", "Potency": "inconclusive [inhibitor, full curve]"}, {"compound": "COC(=O)C(=C/C(C)=C/c1cccnc1)C(=O)OC", "Potency": "inactive"}, {"compound": "Fc1ccc(C2c3[nH]c4ccccc4c3CCN2Cc2cccn2-c2ncccn2)cc1", "note": "(stereo not drawn)", "Potency": "inconclusive [inhibitor, full curve]"}, {"compound": "CCc1ncc(/C=C2\\C(=O)Nc3ccccc32)[nH]1", "Potency": "inconclusive [inhibitor, single point]"}, {"compound": "O=C1C=C(Nc2ccc(Cl)cc2Cl)CC(c2ccco2)C1", "note": "(stereo not drawn)", "Potency": "inactive"}, {"compound": "CC1CC(C)CN(C(=O)C2CCN(C(=O)Nc3ccccc3)CC2)C1", "note": "(stereo not drawn)", "Potency": "inactive"}, {"compound": "CS(=O)(=O)c1ccc2nc(NC(=O)c3ccc(N4CCCC4=O)cc3)sc2c1", "Potency": "inconclusive [inhibitor, single point]"}, {"compound": "CCOC(=O)Nc1cccc(OCC(=O)Nc2ccccc2OC)c1", "Potency": "inconclusive [inhibitor, partial curve]"}, {"compound": "Cc1ccc(C)c(OCCC(=O)Nc2cccc(S(=O)(=O)N3CCCC3)c2)c1", "Potency": "inconclusive [inhibitor, single point]"}, {"compound": "COc1cccc(CSc2nnc(CSc3nc4nc(C)cc(C)n4n3)s2)c1", "Potency": "inconclusive [inhibitor, single point]"}, {"compound": "CC(C)Nc1cc(C(C)(C)C)nc2c(-c3ccccc3)cnn12", "Potency": "inconclusive [inhibitor, partial curve]"}, {"compound": "CCn1c(C)cc(/C=C2/SC(=S)N(CC(=O)O)C2=O)c1C", "Potency": "inactive"}, {"compound": "Cc1ccc(-n2c(SCC(=O)Nc3cc(C)on3)nc3c(c2=O)SC(C)C3)cc1", "note": "(stereo not drawn)", "Potency": "inactive"}, {"compound": "CC(=O)c1c(C(C)=O)c(C)n(-c2ccc(O)cc2)c1C", "Potency": "inactive"}, {"compound": "O=C(NC(=S)Nc1cccc2ncccc12)c1ccccc1", "Potency": "inactive"}, {"compound": "O=C(NC1=NCCS1)c1cc(-c2ccc(F)cc2)nc2ccccc12", "Potency": "inconclusive [inhibitor, single point]"}, {"compound": "COc1ccc(N(CC(=O)Nc2ccc(OC)c(OC)c2)S(=O)(=O)c2ccccc2)cc1Cl", "Potency": "active: 12.6 µM"}, {"compound": "Cc1ccc(NC2CCCN(C(=O)c3ccoc3)C2)cc1C", "note": "(stereo not drawn)", "Potency": "inactive"}, {"compound": "CCCc1cc(C(=O)Nc2ccc(C(=O)c3ccc(F)cc3)cc2)n(C)n1", "Potency": "active: 10 µM"}, {"compound": "CC(C)c1ccc(NC(=O)C2CCCN(S(=O)(=O)c3cccnc3)C2)cc1", "note": "(stereo not drawn)", "Potency": "inconclusive [inhibitor, partial curve]"}, {"compound": "O=C(COc1ccc(Cl)cc1Br)N1CCN(S(=O)(=O)c2ccccc2)CC1", "Potency": "inconclusive [inhibitor, single point]"}, {"compound": "CCCCOC(=O)c1[nH]c(C)c(C(=O)OC)c1C", "Potency": "inconclusive [inhibitor, partial curve]"}, {"compound": "COc1ccc(Br)cc1CNc1ccc2[nH]c(=O)[nH]c2c1", "Potency": "inconclusive [inhibitor, single point]"}, {"compound": "CCC(C)C(NC(=O)c1ccccc1NC(=O)c1ccco1)C(=O)NNC(=O)c1ccc(OC)cc1", "note": "(stereo not drawn)", "Potency": "inconclusive [inhibitor, partial curve]"}, {"compound": "CCc1nc2ccc(C(=O)NCCCN3CCN(c4ccccc4F)CC3)cc2nc1CC", "Potency": "active: 4.47 µM"}, {"compound": "O=C(COc1ccc(CO)cc1)Nc1ccc(F)cc1", "Potency": "inactive"}, {"compound": "CCOC(=O)c1c(N)sc(C(O)(C(F)(F)F)C(F)(F)F)c1-c1ccc(OC)cc1OC", "Potency": "inconclusive [inhibitor, single point]"}, {"compound": "O=C(CCN1CCN(C/C=C/c2ccccc2)CC1)Nc1ccccc1", "Potency": "inconclusive [inhibitor, single point]"}, {"compound": "O=C(Nc1ccc(F)cc1)Nc1cnccn1", "Potency": "inactive"}, {"compound": "Cc1ccc(Nc2cc(Cl)nc(N)n2)c([N+](=O)[O-])c1", "Potency": "inconclusive [inhibitor, partial curve]"}, {"compound": "Cc1nc2cc(Nc3ccncc3)ccc2s1", "Potency": "inactive"}, {"compound": "CCOc1ccc(C2c3[nH]c4ccccc4c3C[C@H]3C(=O)N(C4CCN(Cc5ccccc5)CC4)CC(=O)N23)cc1OC", "note": "(stereo partly drawn)", "Potency": "inconclusive [inhibitor, single point]"}, {"compound": "COc1ccc2[nH]c3c(c2c1)CCN1C(=O)C(CC(=O)NCCc2ccccn2)C[C@H](C(=O)N2CCOCC2)[C@@]31C", "note": "(stereo partly drawn)", "Potency": "inactive"}, {"compound": "COc1ccc(OC)c(/C=C/C(=O)N2CCN(S(=O)(=O)c3ccc(C)cc3C)CC2)c1", "Potency": "inconclusive [inhibitor, single point]"}, {"compound": "Cc1ccc(NC(=O)Cn2cc(C(F)(F)F)cc(Cl)c2=O)cc1S(=O)(=O)N1CCCCC1", "Potency": "inconclusive [inhibitor, single point]"}, {"compound": "CC(C)(C)S(=O)(=O)N1Cc2cc(CO)cc(CCO)c2[C@H]1CCO", "Potency": "inactive"}, {"compound": "Cc1ccc(NC(=O)N2CCC(NC(=O)c3ccccc3C)CC2)cc1", "Potency": "inactive"}, {"compound": "COc1cccc(CN2CCN(C3CCN(c4cccc(C)c4C)CC3)CC2CCO)c1", "note": "(stereo not drawn)", "Potency": "active: 11.2 µM"}, {"compound": "COc1ccc(NS(=O)(=O)c2cccc(C(=O)N(C)Cc3ccc(SC)cc3)c2)cc1", "Potency": "inconclusive [inhibitor, single point]"}, {"compound": "C/C(CC(=O)Nc1ccccn1)=N\\NC(=O)c1cnccn1", "Potency": "inactive"}, {"compound": "CCOCCCNC(=O)c1ccc(/C=C2\\Oc3ccccc3N(C)C2=O)cc1", "Potency": "inactive"}, {"compound": "O=S(=O)(c1ccc(F)cc1)c1nc(-c2ccccc2F)oc1N1CCCCC1", "Potency": "inactive"}, {"compound": "Cc1cc(Cl)c(S(=O)(=O)N2CCCC2)cc1OCC(=O)NC1CCCCC1", "Potency": "inconclusive [inhibitor, partial curve]"}, {"compound": "COc1ccc(C(=O)NCCc2c[nH]c3ccccc23)cc1", "Potency": "inactive"}, {"compound": "CCOC(=O)N1CCC(n2c(SCC(=O)c3ccccc3)nc3ccsc3c2=O)CC1", "Potency": "inconclusive [inhibitor, single point]"}, {"compound": "Cc1cc(=O)oc2cc(NC(=O)c3ccccc3Cl)ccc12", "Potency": "inconclusive [inhibitor, single point]"}, {"compound": "CC(=O)Nc1ccc(S(=O)(=O)N(C)CC(=O)Nc2ccccc2N2CCOCC2)cc1", "Potency": "inactive"}, {"compound": "Cn1nc(CC(=O)Nc2cccc3ncccc23)c2ccccc2c1=O", "Potency": "inconclusive [inhibitor, partial curve]"}, {"compound": "CCCCc1c(C)nn(-c2nnc3c4ccccc4n(C)c3n2)c1C", "Potency": "inconclusive [inhibitor, full curve]"}, {"compound": "CCOC(=O)N1CCN(C(=O)CN(c2cc(Cl)ccc2OC)S(=O)(=O)c2ccccc2)CC1", "Potency": "inactive"}, {"compound": "CN(C)CCNC(=O)C1CC(=O)N(c2ccc(F)c(Cl)c2)C1", "note": "(stereo not drawn)", "Potency": "inconclusive [inhibitor, single point]"}, {"compound": "CC(C)CCCN1C(N(C)C)=NC[C@@H]1Cc1ccccc1", "Potency": "inconclusive [inhibitor, partial curve]"}, {"compound": "CCCOc1ccc(/C=C/C(=O)Nc2ccc([N+](=O)[O-])cc2)cc1", "Potency": "active: 3.55 µM"}, {"compound": "CN1Cc2c(N3CCOCC3)nc3sc(C(=O)c4ccc(Br)cc4)c(N)c3c2CC1(C)C", "Potency": "inactive"}, {"compound": "COc1ccccc1N=C(C)C1=C(O)CC(c2ccccc2)CC1=O", "note": "(stereo not drawn)", "Potency": "inconclusive [inhibitor, full curve, poor fit]"}, {"compound": "O=C(Nc1ccc(Cl)cc1)Nc1csc([N+](=O)[O-])c1", "activity change, negative = inhibition": "inconclusive: -86.6% [inhibitor]"}, {"compound": "Cc1cccc(C)c1NC(=O)CNC(=O)c1ccccc1OCc1ccccc1", "Potency": "inconclusive [inhibitor, single point]"}, {"compound": "COCCn1c(C)cc(C(=O)CSc2nc3ccccc3s2)c1C", "Potency": "active: 10 µM"}, {"compound": "COc1ccc(C(=O)c2sc3nc(C)cc(-c4cccs4)c3c2N)cc1", "Potency": "inconclusive [inhibitor, single point]"}, {"compound": "O=C(CCc1nc2ccccc2c(=O)[nH]1)Nc1cc(Cl)ccc1N1CCCCC1", "Potency": "inconclusive [inhibitor, partial curve]"}, {"compound": "COc1ccc(CCN(C)C(=O)C2CCCN(C3CCN(Cc4ccccc4)CC3)C2)cc1OC", "note": "(stereo not drawn)", "Potency": "inconclusive [inhibitor, partial curve]"}, {"compound": "O=C(Nc1ccc(-c2nc3ncccc3o2)cc1)c1ccc([N+](=O)[O-])o1", "Potency": "active: 3.55 µM"}, {"compound": "CCCCn1c(N)c(N(Cc2ccccc2OC)C(=O)CN2C(=O)NC(C)(c3ccccc3)C2=O)c(=O)[nH]c1=O", "note": "(stereo not drawn)", "Potency": "inactive"}, {"compound": "CCOC(=O)C1=C(Cc2ccc(Cl)cc2)C(=O)c2ccccc2C1=O", "Potency": "active: 11.2 µM"}, {"compound": "Cc1ccc(NS(=O)(=O)c2ccc(NC(=O)c3cccs3)cc2)c(C)c1", "Potency": "inconclusive [inhibitor, partial curve]"}, {"compound": "CCN(CC)CCN(Cc1cc2ccc(C)cc2[nH]c1=O)C(=S)Nc1ccccc1C(=O)OC", "Potency": "inconclusive [inhibitor, single point]"}, {"compound": "CC(C)(C)c1ccc(-n2ncc3c2CCCC3NC(=O)c2csnn2)cc1", "note": "(stereo not drawn)", "Potency": "inactive"}, {"compound": "CC(C)CCNC(=O)C(c1ccncc1)N(C(=O)Cn1nnc(-c2ccc(F)cc2)n1)c1ccccc1F", "note": "(stereo not drawn)", "Potency": "inconclusive [inhibitor, partial curve]"}]}]}
